Assay results as given in PubChem BioAssay (Tox21).
Values joined by “and” are separate entries in the source; they are usually repeats but may differ in a detail not shown here. Identical values can stand only once. Inconclusive means that the source gave no clear call. Such entries were picked first, then a sample of the others. A potency beside an inconclusive call is a rough fit, not a confirmed value. Active and inactive are the calls of the source. Unless noted, the call rests on the fitted dose curve; in most records, active means well fitted curve in the direction sought with a large enough effect in the repeat runs; inconclusive means weak or mixed curves; inactive means no such curve, though single readings can be large; an effect the other way counts as inactive or inconclusive.
On the % scale 0 is the no-effect control and ±100 the full control effect; potency means the concentration at half of the fitted maximal effect; tags describe the fitted curve by direction and shape or compound fluorescence and quenching.

Molecular target: Androgen receptor (Homo sapiens) (UniProt P10275)
Chain of UniProt P10275 (P10275 whole entry, looked up): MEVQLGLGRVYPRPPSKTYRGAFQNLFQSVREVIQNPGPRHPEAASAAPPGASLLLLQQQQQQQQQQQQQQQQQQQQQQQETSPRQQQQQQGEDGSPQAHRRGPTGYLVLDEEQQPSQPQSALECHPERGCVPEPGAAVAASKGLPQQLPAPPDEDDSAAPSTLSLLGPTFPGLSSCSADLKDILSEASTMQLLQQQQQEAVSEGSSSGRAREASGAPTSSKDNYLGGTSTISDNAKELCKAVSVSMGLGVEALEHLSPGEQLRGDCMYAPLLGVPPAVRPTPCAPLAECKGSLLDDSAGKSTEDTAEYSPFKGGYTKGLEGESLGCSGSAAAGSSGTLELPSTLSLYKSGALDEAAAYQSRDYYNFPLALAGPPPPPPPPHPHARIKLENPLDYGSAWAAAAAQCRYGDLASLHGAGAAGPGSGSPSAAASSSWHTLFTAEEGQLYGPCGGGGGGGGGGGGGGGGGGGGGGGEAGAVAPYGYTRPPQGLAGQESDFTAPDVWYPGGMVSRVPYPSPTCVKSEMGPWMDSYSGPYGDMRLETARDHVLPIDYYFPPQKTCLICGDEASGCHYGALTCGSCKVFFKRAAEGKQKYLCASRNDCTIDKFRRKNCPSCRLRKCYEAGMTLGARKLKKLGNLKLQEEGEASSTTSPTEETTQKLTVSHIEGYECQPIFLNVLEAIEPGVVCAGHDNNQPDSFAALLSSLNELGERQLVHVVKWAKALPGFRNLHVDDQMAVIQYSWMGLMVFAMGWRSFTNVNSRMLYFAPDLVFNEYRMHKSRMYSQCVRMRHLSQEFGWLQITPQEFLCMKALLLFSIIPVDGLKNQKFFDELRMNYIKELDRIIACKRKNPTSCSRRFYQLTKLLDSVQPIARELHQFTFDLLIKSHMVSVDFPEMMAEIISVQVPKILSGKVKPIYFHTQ
Assay: qHTS assay to identify small molecule agonists of the androgen receptor (AR) signaling pathway (AID 743036; active means well fitted activation curve with a large enough effect in the signal ratio in the repeat runs, with a control signal flat, not every such curve was filed as active; inconclusive means weak or mixed curves, or effect the other way; inactive means no such curve, though single readings can be large or run the other way; the % refers to the signal ratio)
Settings: HEK293 AR-UAS-bla GripTite, beta-lactamase FRET ratio, 16 h; activation: at 62.4 µM (top of the series) unless noted
Procedure, shortened: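 HEK293 cells stably carrying a UAS-driven beta-lactamase reporter (GeneBLAzer AR-UAS-bla-GripTite) were plated at 2,000 cells/well, rested 4 h at 37C, then exposed to compounds in DMSO for 16 h. LiveBLAzer B/G FRET substrate was added for 2 h at room temperature; fluorescence read.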
In the case of `CCOC(=O)C1(c2ccccc2)CCN(CCC(C#N)(c2ccccc2)c2ccccc2)CC1`, the Potency is reported as inconclusive: 0.477 µM [activator, full curve, poor fit] and the activation is reported as inconclusive: 36.5%. With `c1cc2ccc3cccc4ccc(c1)c2c34` the Potency was inconclusive: 49 µM [rising, partial curve, poor fit]. With `Nc1c(Cl)cc([N+](=O)[O-])cc1Cl` the activation was inconclusive: -8.64%. With `CO/C=C(/C(=O)OC)c1ccccc1Oc1cc(Oc2ccccc2C#N)ncn1` the activation was inconclusive: -14.7% [at 79.1 µM]. For `CC(C)N(C(=O)CCl)c1ccccc1`, the Potency was inconclusive: 27.5 µM [falling, partial curve, poor fit]. With `CCN(CC)c1c([N+](=O)[O-])cc(C(F)(F)F)c(N)c1[N+](=O)[O-]` the “activation” value was inactive: 16.3%. With `Cc1cc(C(C)(C)c2ccc(O)c(C)c2)ccc1O` the Potency was inconclusive: 1.04 µM [activator, single point]. In the case of `O=C(CCl)Nc1ccccc1`, the “activation” value is reported as inactive: 12.2%. For `CCOP(=S)(OCC)Oc1cc(C)nc(N(CC)CC)n1`, the “activation” value was inactive: -16%. In the case of `CO/N=C(/C(=O)OC)c1ccccc1COc1ccccc1C`, the Potency is reported as inconclusive: 2.75 µM [rising, partial curve, poor fit]. In the case of `Oc1cc(Cl)c(Cl)c(Cl)c1Cl`, the Potency is reported as inconclusive: 17 µM [rising, partial curve]. For `CC(Oc1ccc(Oc2ncc(C(F)(F)F)cc2Cl)cc1)C(=O)O` (stereo not drawn), the Potency was inconclusive: 0.195 µM [activator, single point]. In the case of `C/C(=C\c1ccccc1)[N+](=O)[O-]`, the Potency is reported as inconclusive: 27.5 µM [rising, partial curve]. In the case of `C=CC(=O)NCNC(=O)C=C`, the Potency is reported as inconclusive: 12.3 µM [activator, single point]. For `COP(=S)(OC)Oc1cc(Cl)c(Br)cc1Cl`, the Potency was inconclusive: 21.9 µM [partial curve, poor fit]. For `O=[N+]([O-])c1ccc2ccc3cccc4ccc1c2c34`, the activation was inconclusive: 3.62%. With `O=C(NC(=O)c1c(F)cccc1F)Nc1cc(Cl)c(Oc2ncc(C(F)(F)F)cc2Cl)c(Cl)c1` the Potency was inconclusive: 3.32 µM [rising, full curve, poor fit].

Tested on: not listed separately
Assay: qHTS assay to identify small molecule antagonists of the androgen receptor (AR) signaling pathway using the MDA cell line - cell viability counter screen (AID 743041; further: nearly all actives have a fitted effect of over 45% in size)
Settings: MDA-kb2 viability, CellTiter-Fluor, 16 h, cells co-treated with R1881 androgen agonist; viability change, negative = cytotoxic: at 70.3 µM (top of the series) unless noted
Procedure, shortened: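 R1881-driven MDA-kb2 AR-luc cells, 3,000/well, were dosed with library compounds for 16 h; cell health came from CellTiter-Fluor fluorescence in the reporter wells.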
For `CCOC(=O)C1(c2ccccc2)CCN(CCC(C#N)(c2ccccc2)c2ccccc2)CC1`, the Potency was inconclusive: 33.5 µM [cytotoxic, partial curve, poor fit] and inconclusive: 66.8 µM [cytotoxic, partial curve, poor fit]. In the case of `CCCCCCCCn1cc[n+](C)c1`, the Potency is reported as active: 2.71 µM and active: 1.53 µM and active: 1.55 µM. In the case of `c1cc2ccc3cccc4ccc(c1)c2c34`, the Potency is reported as inconclusive: 64.1 µM [rising, partial curve, poor fit]. For `Clc1ccc(CSC(Cn2ccnc2)c2ccc(Cl)cc2Cl)cc1` (stereo not drawn), the Potency was inconclusive: 0.0007 µM. For `CCCC[n+]1ccc(C)cc1`, the Potency was inconclusive: 27.4 µM [rising, single point]. For `CC1(c2ccc(Oc3ccccc3)cc2)OC(=O)N(Nc2ccccc2)C1=O` (stereo not drawn), the Potency was active: 27.5 µM. With `O=C(CCl)Nc1ccccc1` the Potency was active: 54.5 µM. With `CO/N=C(/C(=O)OC)c1ccccc1COc1ccccc1C` the Potency was inconclusive: 61.1 µM [cytotoxic, single point]. In the case of `Oc1cc(Cl)c(Cl)c(Cl)c1Cl`, the Potency is reported as inconclusive: 67 µM [cytotoxic, single point]. For `CC(Oc1ccc(Oc2ncc(C(F)(F)F)cc2Cl)cc1)C(=O)O` (stereo not drawn), the Potency was inconclusive: 30.6 µM [cytotoxic, partial curve, poor fit]. In the case of `C/C(=C\c1ccccc1)[N+](=O)[O-]`, the Potency is reported as inconclusive: 68.6 µM [cytotoxic, single point]. In the case of `COc1ccc(C=O)cc1OC`, the Potency is reported as “inactive”. With `Cc1cc(C2CC2)nc(Nc2ccccc2)n1` the Potency was inconclusive: 68.6 µM [cytotoxic, single point]. In the case of `IC(I)=C(I)I`, the Potency is reported as inconclusive: 24.3 µM [cytotoxic, single point]. For `CC(C)(O)C(=O)Nc1ccc([N+](=O)[O-])c(C(F)(F)F)c1`, the Potency was inconclusive: 62.4 µM [cytotoxic] and inconclusive: 50.1 µM [cytotoxic, partial curve, poor fit]. With `COP(=S)(OC)SCn1nnc2ccccc2c1=O` the Potency was inconclusive: 68.6 µM [cytotoxic].

Molecular target: Androgen receptor (Homo sapiens) (UniProt P10275)
Assay: qHTS assay to identify small molecule antagonists of the androgen receptor (AR) signaling pathway using the MDA cell line (AID 743042; further: nearly all actives have a fitted effect of over 55% in size)
Settings: MDA-kb2 AR-luc, MMTV luciferase, R1881 antagonist, 16 h; series mostly up to 70.3 µM; activity change, negative = inhibition: at the top concentration
Procedure, shortened: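 Antagonist mode: compounds plus R1881 agonist added to MDA-kb2 AR-luc cells, incubated 16 h at 37C. Luciferase reporter luminescence quantified, with multiplexed CellTiter-Fluor readout for cell viability.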
In the case of `CCCCCCCCCCOC(=O)c1ccccc1C(=O)OCCCCCCCCCC`, the Potency is reported as inconclusive: 77 µM [inhibitor, partial curve, poor fit]. With `Cc1cc(C(C)(C)c2ccc(O)c(C)c2)ccc1O` the Potency was inconclusive: 16.4 µM [inhibitor, full curve]. With `Oc1cc(Cl)c(Cl)c(Cl)c1Cl` the Potency was active: 59.7 µM. For `CC(Oc1ccc(Oc2ncc(C(F)(F)F)cc2Cl)cc1)C(=O)O` (stereo not drawn), the Potency was inconclusive: 61.1 µM [inhibitor, partial curve]. In the case of `COP(=S)(OC)Oc1cc(Cl)c(Br)cc1Cl`, the Potency is reported as inconclusive: 61.1 µM [inhibitor, partial curve]. For `CCCC1COC(Cn2cncn2)(c2ccc(Cl)cc2Cl)O1` (stereo not drawn), the Potency was inconclusive: 69.8 µM [inhibitor, single point] and inconclusive: 68.6 µM [inhibitor, single point]. In the case of `O=C(NC(=O)c1c(F)cccc1F)Nc1cc(Cl)c(Oc2ncc(C(F)(F)F)cc2Cl)c(Cl)c1`, the Potency is reported as inconclusive: 18.5 µM [inhibitor, partial curve]. In the case of `CCN(CC)C(=O)/C(Cl)=C(\C)OP(=O)(OC)OC`, the Potency is reported as “inactive”. In the case of `COP(=S)(OC)SCn1nnc2ccccc2c1=O`, the Potency is reported as inconclusive: 67.3 µM [inhibitor, single point] and inconclusive: 68.6 µM [inhibitor, single point].
